Measurements taken from PubChem BioAssay AID445 (National Center for Advancing Translational Sciences (NCATS), 2006).
About 40 (0.04%) of roughly 110,000 compounds were called active. The shares of active, inactive and inconclusive entries below differ from those in the screen. Calls follow the shape of the dose curve; as a rule, active = well fitted curve in the direction sought with a large enough effect in the signal ratio (not every such curve was filed as active); inconclusive = small, poorly fitted or top-dose-only effect, or a change in a side signal; inactive = flat fitted curve, though single readings scatter; the % refers to the signal ratio. Potencies of inconclusive entries are doubtful fits and often do not repeat.

Assay: IkB Signaling;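 as to IkBa stabilization activation: 0% = basal untreated cells and 100% = reference inhibitor full response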
Details: ABC-DLBCL IkBa-CBG/CBR dual luciferase ratio (green luciferase fused to IkBa over red control in OCI-Ly3 lymphoma cells), 4 h; IkBa stabilization activation: at 57.1 µM (top of the series), scaled: untreated 0%, proteasome inhibitor 100% unless noted
Summary of the method: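 In this assay, an IκBα–CBG68 fusion accumulates when IKK-driven degradation is blocked; native CBR normalizes for cell number. OCI-Ly3 cells were treated 4 h with compound and doxycycline, then green and red light read after Chroma-Glo addition.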
Potency is read from the fitted curve at half-maximal effect.

| SMILES | IkBa stabilization activation | Potency |
| --- | --- | --- |
| COc1cccc2sc(NC(=O)CS(=O)(=O)c3ccc(C)cc3)nc12 | inconclusive: 14.1% [signal inhibitor] |  |
| CCc1c(C)sc(NC(=O)c2cccs2)c1C(=O)OC(C)C | inactive |  |
| O=C(CCCCn1c(=O)[nH]c2ccccc2c1=O)N1CCN(c2cccc(C(F)(F)F)c2)CC1 | inconclusive: 2.21% [signal inhibitor] |  |
| COc1ccc2c(c1)C(C)=CC(C)(C)N2C(=O)CSc1nnc(-c2ccc(C)cc2)o1 | inconclusive: 5.11% [signal inhibitor] |  |
| CCn1cc2nc(SCc3cccc(C(F)(F)F)c3)n(Cc3ccc(Cl)cc3)c(=O)c2n1 | inconclusive: 2.15% [signal inhibitor] |  |
| Cc1ccc(Cl)cc1-n1nnc(-c2nsc(NC(=O)c3ccccc3Cl)n2)c1C | inconclusive: 4.97% [signal inhibitor] |  |
| COc1cc(C2CC(=O)N3CN(Cc4ccco4)CSC3=C2C#N)ccc1OCc1ccccc1 (stereo unspecified) | inconclusive: 5.87% [signal inhibitor] |  |
| Cc1ccc2oc(C(=O)Nc3ccc(S(=O)(=O)N4CCCC(C)C4)cc3)cc(=O)c2c1 (stereo unspecified) | inconclusive: -0.987% [signal inhibitor] |  |
| CCc1ccc(-n2c(=O)c3ccccc3n(CC(=O)NCCc3ccc(OC)c(OC)c3)c2=O)cc1 |  | inconclusive: 20 µM [signal inhibitor] |
| COc1ccc(Cl)cc1NC(=O)NCCn1c(=O)oc2ccc(C)cc21 | inconclusive: 5.81% [signal inhibitor] |  |
| O=C(NCc1ccccc1)c1ccc(-c2ccccc2F)o1 | inconclusive: 2.84% [signal inhibitor] |  |
| COc1ccc(OC)c(N(CC(=O)N2CCN(c3cc(Cl)ccc3C)CC2)S(C)(=O)=O)c1 | inconclusive: 4.76% [signal inhibitor] |  |
| Cc1ccc(N(CC(=O)N2CCN(c3cccc(Cl)c3)CC2)S(=O)(=O)c2c(C)noc2C)cc1 | inconclusive: -1.16% [signal inhibitor] |  |
| O=C(NCc1ccco1)C1Cc2ccccc2CN1S(=O)(=O)c1ccccc1F (stereo unspecified) |  | inconclusive: 15.8 µM [signal inhibitor, partial curve] |
| Cc1ccccc1NC(=O)c1c(NC(=O)c2ccccc2)sc2c1CCC2 |  | inconclusive: 10 µM [signal inhibitor, partial curve] |
| CCOC(=O)c1c(NC(=O)COC)sc2c1CCCC2 | inactive |  |
| CCN(CC)C(=O)c1sc2c(c1C)c(=O)n(-c1ccccc1)c(=O)n2Cc1c(C)cc(C)cc1C | inconclusive: 0.461% [signal inhibitor] |  |
| CCOc1ccc(NC(=O)CC2C(=O)N(c3ccccc3)C(=O)N2CCc2cccs2)cc1 (stereo unspecified) | inconclusive: 0.728% [signal inhibitor] |  |
| Cc1cccc(NC(=O)c2ccccc2O)c1C | inconclusive: 7.27% [signal inhibitor] |  |
| Cc1ccc(CCNC(=O)c2sc3ncccc3c2-n2c(C)ccc2C)cc1 | inconclusive: 5.64% [signal inhibitor] |  |
| CC1CCCCN1c1c(S(=O)(=O)c2ccc(Cl)cc2)cnc2ccccc12 (stereo unspecified) | inactive |  |
| CCC(=O)Nc1ccc(CC)cc1-c1nc2ccccc2n(CC(=O)Nc2cccc(OC)c2)c1=O | inconclusive: 0.872% [signal inhibitor] |  |

| SMILES | IkBa stabilization activation | Potency |
| --- | --- | --- |
| COc1cccc(C2=CC(c3ccccc3F)n3ncc(C(=O)Nc4ccc(C)cc4)c3N2)c1 (stereo unspecified) | inconclusive: 1.25% [signal inhibitor] |  |
| CCOC(=O)c1cc2c(=O)n3ccccc3nc2n(CC(C)C)c1=NC(=O)COc1ccc(Cl)cc1 | inactive |  |
| Cc1cc(=O)[nH]c(SCC(=O)Nc2cccc(C(F)(F)F)c2)n1 | inactive |  |
| Cc1cc(N2CCN(C)CC2)nc2ccc(NC(=O)c3ccc(C(C)(C)C)cc3)cc12 | inconclusive: 0.305% [signal inhibitor] |  |
| Cc1ccc(-n2nc(C(=O)Nc3ccc(F)cc3Cl)c(=O)n(C)c2=O)cc1 | inactive |  |
| Cc1ccc(C(=O)n2nc(C)c(S(=O)(=O)N3CCCCCC3)c2C)cc1C | inconclusive: 11% [signal inhibitor] |  |
| CCOC(=O)c1[nH]c(C)c(C(=O)OCCN2C(=O)c3ccccc3C2=O)c1C | inactive |  |
| COc1ccccc1NC(=O)CSc1nc(O)c(C/C=C/c2ccccc2)c(=O)[nH]1 | inconclusive: 12.1% [signal inhibitor] |  |
| COC(=O)c1[nH]c2c(c1C)C(=O)CCC2 | inactive |  |
| COc1ccc(CNC(=O)c2nc(SCc3ccc(C)cc3)ncc2Cl)cc1 | inactive |  |
| COc1ccc(NC(=O)c2cccs2)cc1OC | inactive |  |
| COc1ccc(Cn2c(=O)n(-c3ccc(F)c(Cl)c3)c(=O)c3c2c2cc(OC)ccc2n3C)cc1 | inactive |  |
| O=C(O)CCC(=O)Nc1ccc2c(c1)oc1ccccc12 |  | inconclusive: 0.02 µM [signal inhibitor, full curve] |
| CCOc1cccc2sc(N3CCN(C(=O)c4ccc5c(c4)CCCC5)CC3)nc12 | inconclusive: 4.81% [signal inhibitor] |  |
| O=C(COc1ncnc2ccc(Br)cc12)Nc1ccc(N2CCOCC2)cc1 | inactive |  |
| CC(C)C(NS(=O)(=O)c1ccc2c(c1)oc(=O)n2C)C(=O)N1CCN(c2cccc(Cl)c2)CC1 (stereo unspecified) | inconclusive: 2.46% [signal inhibitor] |  |
| CCN(CC)C(=O)c1ccc2c(c1)N(Cc1c(F)cccc1Cl)C(=O)c1ccccc1S2 | inconclusive: 1.69% [signal inhibitor] |  |
| COc1ccc(NC(=O)C(Cc2c[nH]c3ccccc23)NC(=O)OC(C)(C)C)cc1 (stereo unspecified) | inactive |  |
| Cc1ccn2c(Nc3c(C)cccc3C)c(-c3ccsc3)nc2c1 | inconclusive: 12.8% [signal inhibitor] |  |
| COc1ncc2nc(-c3ccc(Cl)cc3)c(=O)n(CCc3ccccc3)c2n1 | inactive: -1.09% [at 11.4 µM, scaled: untreated 0%, proteasome inhibitor 100%] |  |
| O=C(CSc1nc(=O)[nH]c2c1CCCC2)Nc1ccc(Cl)c(Cl)c1 | inconclusive: 0.877% [signal inhibitor] |  |
| COc1ccc2c(c1)-c1nc(NC(=O)c3ccc(Cl)cc3)sc1CC2 | inactive |  |

| SMILES | IkBa stabilization activation | Potency |
| --- | --- | --- |
| Cc1cccc(NC(=O)Cn2cc(C(=O)c3ccco3)c3ccccc32)c1C | inconclusive: 8.41% [signal inhibitor] |  |
| CCc1ccccc1NC(=O)Cn1nnc(C(=O)Nc2ccc(C)c(F)c2)c1N | inactive |  |
| Cc1nn(CC(=O)NCc2ccc(OC(C)C)cc2)c(=O)c2c(C)n(-c3ccc(Cl)cc3)nc12 | inconclusive: 1.16% [signal inhibitor] |  |
| COc1ccc(CN2C(=O)C(NC(=O)c3ccccc3C)(C(F)(F)F)N=C2c2ccccc2)cc1 (stereo unspecified) | inconclusive: -1.65% [signal inhibitor] |  |
| Cc1ccc2oc(-c3ccc(Cl)c(NC(=O)c4ccc(-c5ccccc5[N+](=O)[O-])o4)c3)nc2c1 | inconclusive: 15.7% [signal inhibitor] |  |
| COCCn1c(=O)c(CCc2ccccc2)nc2cnc(N3CCOCC3)nc21 | inactive: -2.23% [at 11.4 µM, scaled: untreated 0%, proteasome inhibitor 100%] |  |
| COc1nnc(-c2ccc(N3CCOCC3)c(NC(=O)c3ccco3)c2)c2ccccc12 | inactive |  |
| Cc1cc(C)cc([N+](=O)[O-])c1 | inactive |  |
| O=C(Nc1ccc(F)cc1F)c1noc2c1CCc1ccccc1-2 |  | inconclusive: 10 µM [signal inhibitor, partial curve] |
| COC(=O)c1ccccc1NC(=O)Cc1noc2ccc(C)cc12 | inconclusive: -0.669% [signal inhibitor] |  |
| COCCn1c(=O)c(-c2cccc(C#N)c2)nc2cnc(Nc3ccccc3)nc21 | inactive: -10.8% [at 11.4 µM, scaled: untreated 0%, proteasome inhibitor 100%] |  |
| Nc1c2ccccc2nc2c(O)cccc12 | inactive |  |
| COc1ccc(Br)cc1CNC(=O)CN1CCSc2ccccc21 | inconclusive: 7.78% [signal inhibitor] |  |
| CCCCc1nnc(NC(=O)CSc2nc(=O)cc(N)n2-c2ccccc2)s1 | inconclusive: 15.5% [signal inhibitor] |  |
| CN1CC(=O)NC1=NC(=O)C12CC3CC(CC(C3)C1)C2 | inconclusive: 16% |  |
| O=C(Nc1ccc(Cl)c(Cl)c1)N1CCC(c2ccccc2)C1 (stereo unspecified) |  | inconclusive: 15.8 µM [signal inhibitor, partial curve] |
| Cc1cccn2c(=O)cc(COc3cccc(NC(=O)c4ccccc4F)c3)nc12 | inconclusive: -2.44% [signal inhibitor] |  |
| CC1=NNC(=S)NCCCN2CCN(CCCNC(=S)NN=C(C)C=NNC(=S)NCCCN3CCN(CCCNC(=S)NN=C1)CC3)CC2 | inactive: 1.17% [at 11.4 µM, scaled: untreated 0%, proteasome inhibitor 100%] |  |
| CC(=O)O[C@@H]1C(=O)[C@@]2(C)[C@H](O)C[C@H]3OC[C@]3(OC(C)=O)[C@@H]2[C@H](OC(=O)c2ccccc2)[C@@]2(O)C[C@H](OC(=O)[C@@H](O)[C@@H](NC(=O)c3ccccc3)c3ccccc3)C(C)=C1C2(C)C (stereo in doubt) | inconclusive: -0.154% [signal activator] |  |
| Cn1c(C(=O)N2CCCC(C(=O)NCCCc3ccccc3)C2)cc2sccc21 (stereo unspecified) | inconclusive: 1.38% [signal inhibitor] |  |
| Cc1ccc(-c2nc(SCC(=O)NCC3CCCO3)c(-c3ccc(C)cc3)[nH]2)cc1 (stereo unspecified) | inconclusive: 11% [signal inhibitor] |  |
| CCN1CCN(Cc2c(O)c(Cl)cc3c(C)cc(=O)oc23)CC1 | inactive |  |
